# Laboratory results as given in ChEMBL document CHEMBL4888484, “Replenishing the malaria drug discovery pipeline: Screening and hit evaluation of the MMV Hit Generation Library 1 (HGL1) against asexual blood stage Plasmodium falciparum ,using a nano luciferase reporter read-out” (2022).
# Among all 150,000 compounds or so, about 540 (0.36%) showed an effect of 50% or more. Some of the results follow.
# Test system: Plasmodium falciparum
# Assay: Primary screen in NF54 nanoGlo assay, in single point, at 2uM, 72h; a lower Z score goes with more inhibition
# Format: functional, Erythrocyte
# Conditions: timepoint 72 hour
Compound,% Inhibition [%],Z score
Cc1noc(C)c1CCC(=O)N[C@H]1CCCN(C)C1,7,-0.87
O=C1O[C@]2(CCCN(C(=O)Cn3ccc4ccccc43)C2)c2ccccc21,-7,0.84
COc1cccc(F)c1-c1cc(-n2cccn2)ncn1,-7,0.78
c1ccc2c(c1)C[C@H](Cc1ccc(N3CCCC3)nn1)CO2,-17,2.3
CCC[C@H](C)N1CC2(CCN(C(=O)c3cn(CCC)nc3C)CC2)OC1=O,0,-0.07
O=C(NCc1ccco1)C1Cc2cc(C(F)(F)F)ccc2N2CCN(Cc3ccc(Cl)cc3)CC12 (stereo not drawn),1,-0.15
Cc1cccc(C)c1Oc1ccccc1NC(=O)C(=O)N1CCC(O)CC1,3,-0.37
CC[C@H](NS(=O)(=O)N1CCCCC1)c1cn2cccnc2n1,1,-0.09
Cc1ocnc1C(=O)N(Cc1ccccc1)[C@H]1CC(C)(C)OC1(C)C,5,-0.84
COc1ccc(C[C@H]2CCOC3(CCN(C(=O)C4CCCC4)CC3)C2)cc1,-14,1.81
Cc1cc2c(cc1C)N(CC(=O)Nc1ccc(Cl)cc1F)C(=O)CC(c1cccs1)=N2,0,0.05
COc1ccccc1OCC(=O)c1ccc2c(c1)N([C@@H](C)C(=O)NC1CC1)C(=O)CO2,-11,1.05
Cc1ccc(NC(=O)CN2CCC[C@H]2c2nc(-c3ccccc3F)c[nH]2)cc1,-7,0.85
CC(C)CCOc1ccc(NC(=O)c2ccc(C#N)cn2)nn1,-6,0.79
O[C@@H](Cn1ccnc1-c1ccccc1-c1ccco1)c1ccccc1,5,-0.89
C[C@H]1COCCN1C(=O)c1cccc2sc(C(F)(F)F)nc12,0,0.07
Fc1cc(Cl)ccc1-c1ccc(CNCCc2c[nH]cn2)o1,-2,0.4
COc1ccc(-c2c(C(=O)N3CCCCC3)nc3ccccn23)cc1,-1,0.16
CN(Cc1cnn(-c2ccccc2)c1)c1ccc(F)cn1,4,-0.51
Cc1noc(NC(=O)[C@@H](C)Cn2cncn2)c1-c1ccccc1,4,-0.35
Cc1cc(F)c2nc(O)cc(C(=O)N3CCC4OCCCC4C3)c2c1 (stereo not drawn),-9,0.81

Compound,% Inhibition [%],Z score
C=CC[C@]1(CO)CCCN(C(=O)c2cc(C(C)C)n[nH]2)C1,-4,0.75
N#Cc1cccnc1NCCN1CCCOCC1,-8,1.33
COc1ccc(Cn2c(CCC(=O)NCc3ccc(Cl)cc3)nc3ncccc3c2=O)cc1,3,-0.55
Cc1c(Cl)cnn1CCOCC(F)(F)C(F)F,-4,0.69
CS(=O)(=O)NCCOCc1ccc(Cl)cc1Cl,-4,0.58
Cc1cccnc1CNC(=O)N1CCC([C@H](O)c2ccccn2)CC1,-3,0.6
N#Cc1nc2nnc3ccc(O)cc3n2c1C#N,-34,3.96
Cc1ccc(C(=O)Cn2cnc3c2c(=O)n(C[C@H]2CCCO2)c(=O)n3-c2ccccc2C)c(C)c1,-16,1.51
CC1CCCC(NC(=O)CN(C)C2CCC(CO)CC2)C1C (stereo not drawn),-12,1.4
CCC1CCC(N(C)C(=O)c2cnc3c(C)cccn3c2=O)CC1 (stereo not drawn),-6,0.7
Cc1c(C(=O)NC[C@H]2Cc3ccccc3O2)nnn1C(C)C,7,-0.93
Cc1ccc(C(=O)N2CC3(C[C@H](N4CCCCC4)CO3)C2)cc1C,-7,1.07
Cc1ccc(N(CCC#N)C(=O)COC(=O)C2CCN(S(=O)(=O)c3ccc(C)c(C)c3)CC2)cc1,-15,1.46
CNC(=O)CN1CCC(CN(C)c2cc(C)nc(C3CC3)n2)CC1,-5,0.67
C#CCNS(=O)(=O)c1cnc(C(F)(F)F)c(C(=O)OCC)c1,-20,2.81
Cc1nc(-c2ccccc2C(=O)O)c2ccsc2n1,5,-0.84
COCCOCC(=O)N1CCC(n2c(C)cnc2COC)CC1,-8,1.08
COCc1nc2c(s1)CN(C(=O)c1ccc(OC)cc1)CC2,-10,1.36
CCCC(C)C(=O)N[C@H]1CCO[C@@H]1c1cc[nH]n1 (stereo partly drawn),2,-0.22
CC(C)Cc1cc(CNC(=O)c2ccc([C@H](C)N3CCCCC3)o2)on1,-6,0.72
C[C@@H](CN(C)c1ncncc1-c1ccccc1)C(=O)O,-1,0.09

Compound,% Inhibition [%],Z score
c1cnn(Cc2ccc(CN3CC(c4ccncc4)C3)cc2)c1,-7,1.28
O=C(NC1CCN(C2CCCCC2O)CC1)c1csc(Cl)c1 (stereo not drawn),-3,0.45
Cn1c(N2CCN(c3ccccn3)CC2)nc2c1c(=O)n(Cc1ccc(Cl)cc1)c(=O)n2C,36,-0.76
CC(=O)NCCC(=O)N1CCC[C@H](C)C1,6,-0.67
Cc1noc([C@H](C)NC(=O)Nc2cc(N3CCOC3=O)ccc2F)n1,2,-0.26
Cn1ncc(Cn2ncn(C)c2=O)c1C(F)(F)F,1,-0.15
CC(=O)N1C[C@H](NC(=O)C(F)(F)F)CC[C@H]1C(F)(F)F,-4,0.52
O=C(CN1N=C(c2ccccc2)c2ccccc2S1(=O)=O)Nc1ccccc1C(F)(F)F,6,-0.53
c1ccc(CNCCc2cccc3c2NCCC3)cc1,-9,1.09
CCC(C)(NC(=O)c1ccccn1)C(=O)NC(/C=C/c1ccc(Cl)cc1Cl)C(C)(C)C (stereo not drawn),6,-0.71
COc1ccc2c(c1)OC[C@]1(CO)CN(Cc3ncc[nH]3)C[C@H]21,-1,0.25
COc1c2c(c(S(=O)(=O)NCCc3c[nH]c4ccccc34)c3c1C(=O)N(C)CC3)OCO2,-4,0.52
COCCn1cnc2ccc(NC(=O)c3cn(CCOC)c(=O)c4ccccc34)cc2c1=O,3,-0.43
O=C1c2ccccc2[C@](O)(c2ccccc2)N1c1ccc(N2CCOCC2)cc1,-2,0.18
O=C(Nc1cccc(Br)c1)N1CCC(n2cnc3cccnc32)CC1,3,-0.42
Cc1ccc(-c2nnc(NC(=O)N(C)Cc3cccnc3)s2)cc1,-5,0.65
N#Cc1ccc(OCCN2CCN(c3nccs3)CC2)cc1,1,-0.22
CN(C)c1ncnc2c1cc(C(=O)N1CC[C@@H]3CCC[C@@H]31)n2C,-13,2.38
CC(C)(C)n1nc(-c2ccccc2)nc1CCN1CCC(C(N)=O)CC1,-17,2.03
CCc1nn(C)cc1C(=O)NS(=O)(=O)Cc1ccc2c(c1)COC2,9,-1.33
CCc1sc([C@H](C)NC(=O)Cn2cc(CO)nn2)cc1C,-4,0.62

Compound,% Inhibition [%],Z score
Cc1cccc(-c2cnc(NC(=O)COC3CCN(C)CC3)s2)c1,-9,1.37
C#CCN(Cc1ccco1)Cc1nc(-c2ccc(OC)c3ccccc23)oc1C,-14,1.52
COc1cc(NC(=O)CCc2c(-c3ccc(Cl)cc3)nc3ccccn23)cc(OC)c1OC,6,-0.79
O=C(c1ccsn1)N1CCC(O)(Cc2ccc(F)cc2)CC1,6,-0.68
C[C@H](Oc1cccnc1)C(=O)N1CCC(c2c[nH]c3ccccc23)CC1,-2,0.43
COc1cc(CN2C[C@H]3CC[C@@H](C2)N(C)C3)ccc1OCC=C(C)C,-19,1.65
CS(=O)(=O)N1CCC[C@H]1c1noc(CCC(=O)NC2CC2)n1,-4,0.42
CC[C@@H]1Oc2ccc(NC(=O)Cc3cccs3)cc2CN(Cc2cccc(OC)c2)C1=O,-1,0.11
NS(=O)(=O)c1ccc(-n2ccnc2-c2ccc(O)c(C(=O)O)c2)cc1,-20,2.29
CN1CCC(C(=O)NC2CC2c2ccccc2)CC1=O (stereo not drawn),2,-0.37
CCCN(CC(=O)O)c1nc(C(F)(F)F)cs1,-1,0.21
O=C(NCC(O)COCC1CC1)NC1CCCC(C2CC2)C1 (stereo not drawn),-6,1.06
O=C(NCCCNC(=O)c1ccc(-c2cccc(Cl)c2Cl)o1)c1cnccn1,-17,1.85
CCN(Cc1cc(C(F)(F)F)ccc1C)[C@@H](C)CCO,-2,0.46
Cc1nc(C(=O)Nc2nc(C3CCN(C(=O)OC(C)(C)C)CC3)nn2C)co1,19,-2.39
CCc1ccc([C@@H]2CCCCN2CC(=O)N2CC(=O)Nc3ccccc32)o1,-6,0.98
Cc1sccc1C(=O)N1CCC[C@@]12CCOC2,17,-2.13
CC[C@H]1CN(Cc2cc(-c3ncccn3)ccc2OCC(=O)O)CCN1C,-5,0.83
Cc1noc(CCCc2nc([C@@H]3CCCCCN3)no2)n1,-16,2.56
O[C@@H]1C[C@@H](c2nnc3n2CCN(Cc2ccc4c(c2)CCO4)C3)N(Cc2ccccc2)C1,-16,2.08
O=C(C(NC1CC1c1ccccc1)c1ccccc1)N1CCCCC1 (stereo not drawn),-3,0.26
